# Data taken from PubChem BioAssay (NCI).
# Several values for one entry are separate records, joined by “and”; a condition that tells them apart may be missing. Equal entries are not always repeated.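 48-hour exposure; five concentrations; linearly interpolated endpoints. GI50: concentration for 50% inhibition of growth. TGI denotes the concentration required for complete inhibition of growth.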
# Tested on: NCI-H322M lung
# Experiment: NCI anticancer screen, dose series, 48 h
Compound,GI50 [µM],TGI
COc1ccc(-c2nn(-c3ccc(NC(=O)c4cc(Cl)cc(Cl)c4)cc3)cc2-c2ccncc2)cc1Cl,> 100,> 100 µM
CCCCCCCCCC(CCCC(O)CC(=O)O)OC1OC(COC2OC(C)C(OC(C)=O)C(O)C2O)C(O)C(O)C1OC1OC(CO)C(O)C(O)C1OC1OC(C)C(OC(=O)CC(C)C)C(O)C1O (stereo unspecified),> 35,> 35 µM
CC1OC(OC2C(OC(=O)[C@]34CCC(C)(C)C[C@H]3C3=CC[C@@H]5[C@@]6(C)CC[C@H](OC7OC(CO)C(O)C(O)C7OC7OC(CO)C(O)C(O)C7O)C(C)(C)[C@@H]6CC[C@@]5(C)[C@]3(C)CC4)OCC(O)C2O)C(O)C(O)C1OC1OCC(O)C(OC2OCC(O)C(O)C2O)C1O (stereo partly specified),,11.2 µM and 7.84 µM
CCN(CC)C(=S)SC1C(=O)NC(=O)NC1=O,,> 100 µM
O=C(COc1ccc(OCC(=O)N2C(=O)CN(c3ccccc3)C2=S)cc1)N1C(=O)CN(c2ccccc2)C1=S,> 25,> 100 µM
O=C(N/C(=C\c1ccccc1Cl)c1nc2ccccc2[nH]1)c1ccccc1,,> 100 µM
CC(C)N(C(=O)C12C3C4C1C1C2C3C41I)C(C)C (stereo unspecified),,> 100 µM
O=S(=O)(c1ccccc1)N1CN2CN(C1)CN(S(=O)(=O)c1ccccc1)C2,,> 100 µM
N#Cc1ncn(CCO)c1N,,> 100 µM
CCCCC(/C=C\COC1CCCCO1)=C/C(=O)OCC (stereo unspecified),,> 100 µM
COc1ccc(C(=O)O[C@H]2[C@H](O[C@H]3[C@@H](O)COC(O[C@H]4C[C@H]5[C@@H]6CC=C7C[C@@H](O)CC[C@]7(C)[C@H]6CC[C@]5(C)[C@H]4[C@H](C)C(=O)CCC(C)C)[C@@H]3OC(C)=O)OC[C@@H](O)[C@@H]2O)c(C)c1 (stereo partly specified),10.7,30.7 µM
CCN(CC)c1ccc2nc3c4ccccc4c(=O)cc-3n(-c3ccccc3)c2c1,1.57,4.06 µM
CN(C)C(=O)OC1=CC2CCC(C1)N2C (stereo unspecified),,> 100 µM
O=C1/C(=C/c2[nH]ncc2-c2ccc(Cl)cc2)C(=O)N(c2ccccc2)C1c1ccccc1 (stereo unspecified),,> 100 µM
COc1cc(OC)c2c(=O)c3c([N+](=O)[O-])cccc3n(C)c2c1,,> 100 µM
O=C(O)C1CCCCN1C(=O)Cc1c[nH]c2ccccc12 (stereo unspecified),,> 100 µM
Cc1nc(-c2cnc(NC(C)C)n(C)c2=O)ccc1Oc1ccnc(-c2cnn(C)c2)c1,48.3,> 100 µM
O=C(CCl)Nc1cc(Cl)c(Cl)cc1Cl,,3.39 µM
COc1ccc(Cl)cc1Nc1nc(C(F)(F)F)ccc1C(=O)N/N=C/c1cccnc1,1.69,> 100 µM

Compound,GI50 [µM],TGI
O=C(c1ccccc1)c1ccc2c(c1)nc1n2C(c2c(F)cccc2F)SC1 (stereo unspecified),,> 100 µM
CC(C)CC(NP(=O)(O)OC1OC(C)C(O)C(O)C1O)C(=O)NC(Cc1c[nH]c2ccccc12)C(=O)O (stereo unspecified),,> 100 µM
CC(=O)Oc1c(OC(C)C)c(C)c(O[Si](C(C)C)(C(C)C)C(C)C)c2[nH]c3ccccc3c12,,> 100 µM
OCCCSCCO,,> 100 µM
COc1ccccc1-n1c(N)c2c(C)c(-c3ccccc3)[nH]c2nc1=S,,> 100 µM
CSC1=C(C(=O)Nc2ccc(C)cc2)C(N)=NC1=O,,> 100 µM
CC1(C)S[C@H](CN)N[C@H]1C(=O)OC(c1ccccc1)c1ccccc1,,> 100 µM
N#Cc1ccccc1C#C/C=C\C#CC#C/C=C\C#Cc1ccccc1C#N,22,63.3 µM
O=C(O)C(O)C(O)C(O)C(O)C(=O)O (stereo unspecified),,> 100 µM
CCOC(=O)/C(C#N)=C1\SS/C(=C(/C#N)C(=O)OCC)S1,29.6,82 µM
CCOC(=O)C(/C(=N\NC(=O)OC)C(=O)Nc1cc(OC)ccc1OC)c1cnc2ccccc2n1 (stereo unspecified),,> 100 µM
CN(C)C(=O)NC(=S)N(C)C,,> 100 µM
C#CCNC(=O)NCCCCC(NC(C)=O)C(=O)NCc1ccccc1 (stereo unspecified),,> 100 µM
Cc1n[n+]([O-])c(C)cc1[N+](=O)[O-],,30.7 µM
CCOC(=O)C(NO)C(Sc1ccccc1)c1ccc(OC)cc1 (stereo unspecified),,> 100 µM
O=c1ccc(=O)n(-c2ccccc2)[nH]1,,> 100 µM
O=S(=O)(O)c1ccc2c(N=Nc3ccc(N=Nc4ccccc4)cc3)c(O)c(S(=O)(=O)O)cc2c1,,> 100 µM
COc1cc(C2C(C(=O)Nc3ccc([N+](=O)[O-])cc3)=C(C)NC(C)=C2C(=O)Nc2ccc([N+](=O)[O-])cc2)ccc1O,,> 54.9 µM
